# Results taken from the RNAGym collection of RNA variant scans (doi:10.7554/elife.90254).
# Read counts are not given, so values of variants with three or more changes are uncertain.
# B1: LINE1-mini (parent)
# chain: GGCAGAGCUCAACACAGCGUGGCAAAGUGGCUGUGGCUAGACUGCC
# Variants of: B1
# Test: self-cleavage, relative activity (ratio to wild type); higher = more cleavage; in vitro, sequencing; the parent is a self-cleaving ribozyme
row,Variant,self-cleavage
1,GGCAUAGCUCAACACAGCGUGGCAAAGUGGCUGUGGCCAGACUGCG [G5U U38C C46G],0
2,GGCAGAGGUUAGCACAGCGUGGCAAAGUGACUGUUGUUGGACUGCC [C8G C10U A12G G30A G35U C37U A39G],0.01
3,GGCAGCGCUCAUCACUGCGUGGCAACGUGGCUGUGGCUAGACUGCC [A6C A12U A16U A26C],0.05
4,GGCAGAGCUCAACACAGCGUGGCAACAUGGCUCUGGCUAGACUUCC [A26C G27A G33C G44U],0.05
5,GUCAGAGCUCUAAACAGCGUCGCAAAGUGGCUGUAGCUACACUGCC [G2U A11U C13A G21C G35A G40C],0
6,GGCAGAGCUCAACACCGCGUGGCAAACUGGCUGUGUCUAGACUGCC [A16C G27C G36U],0.05
7,UGCAGAGCUCAACAGAGUGUGGCAAAGUUGCUGUGGCUAGACUGCC [G1U C15G C18U G29U],0.01
8,GACCGAGCUUAACUUCGCGUGGCAAAGGGGCUGUGGCUAGACUGCC [G2A A4C C10U A14U C15U A16C U28G],0.08
9,GGCAGAGCUCAGCACAGCGUGGCAAAUUGGCUGAGGCUAGACUGCC [A12G G27U U34A],0.03
10,GGCGGAGCUGAACACAGCGGGGCAAAGUGGCUGUGGAUAGACUGCC [A4G C10G U20G C37A],0
11,GGCAGAUCUCAAGACGGCGAGUCAAAGUGGCUGUAGCUAGAAUGCC [G7U C13G A16G U20A G22U G35A C42A],0.02
12,GGCAGAGCACAACACAGCGUGGCUAAUUGGCUGUGGCUAGACUGCC [U9A A24U G27U],0.27
13,GGCAGAGCUCAGCACAGCGUCGCAAAGUGGCUGUGGGUAGACUGCC [A12G G21C C37G],0.03
14,GGCAGAGUUCAACACAGCGUUGCAAAGUGGCUGUGGCUAGACUGUC [C8U G21U C45U],0.05
15,GGUAGAGCUCAACACAGCGUGGCACAGUGGCUGUCGCUAGACUGUC [C3U A25C G35C C45U],0.07
16,GGCAGAGCUCAACACCGCGUGGCAAAGUGGCUGGUGCUAGACUGCG [A16C U34G G35U C46G],0
17,GGCAGAGCUCAACACAGCGAGGCAAAAUGGCUGUGGCUAGACUGUC [U20A G27A C45U],2.55
18,GGCAGAGCGUAACACAACGUGGCAAAGUGUCUGUGGCUAGACUGCC [U9G C10U G17A G30U],0.03
19,GACAGAGGUCAACACAGCGUGGCAAGGUGGCUUUGGGUAGACUGCC [G2A C8G A26G G33U C37G],0.03

row,Variant,self-cleavage
1,GGCAGGGCUCAACACAGCGUGGCAAAGUGGCUGCGGCUAGGCGGCC [A6G U34C A41G U43G],0.04
2,GGCAGAGCUCAACACAGCGUGGCAUAGUGGUUGAGGCUAGACUGCC [A25U C31U U34A],0.02
3,GGCAGAUCUCAACACAGCGUGGCAAAGUGUCUGUGUCUAGACUGCU [G7U G30U G36U C46U],0.07
4,GGCAGAGCUCAACACAUCGAUGCAACAUGGCUGUGGCUAGACUGCC [G17U U20A G21U A26C G27A],0.28
5,GGCUGAUCUCAACACAACGUGGCAAAGUAGCUGUUGCCAGACUGCC [A4U G7U G17A G29A G35U U38C],0.15
6,GGCAGAGCUCACCACAGCGUGGCCAAGUGGCUGUGGCUAGAUUGCC [A12C A24C C42U],0.02
7,GGCAGAGCUCAAUACAGCGUUGCAAAGUGGCUGAGGCUAGCCUGCC [C13U G21U U34A A41C],0.03
8,GGCAGAGCCCAACACAGCGUGGCAAAGUGGCUGUGGCUAGAUUGCG [U9C C42U C46G],0.11
9,GGCAUAGAUCAAUACAGCGUGGCAAAGUGGCUGUGGCUGGACUGCA [G5U C8A C13U A39G C46A],0.47
10,AGCAGAGCUCAGCACAGCGUGGCAAAGUGGCAGUGGCUAAACUGCC [G1A A12G U32A G40A],0.06
11,GACAGAGCUCAACACAGCGUGGCAAAGAGGCUGUGGCUUGACUGCC [G2A U28A A39U],0.19
12,GGCAGAGCUCAACACAUACGGGCAAGGUGGCCAUGGCUAGACUGCC [G17U C18A G19C U20G A26G U32C G33A],0.03
13,GGCAAAGUUCAACACAGCGUAGCAAAGUGGCUGUGGCUAGACUGCC [G5A C8U G21A],0.09
14,GGCAGGGCUCAACACAGCGUGGCAAAGUGGCUGCGGGUAGACUGCC [A6G U34C C37G],0.12
15,GUCAGAGCUCAACACAGCGUGGCAUAGUGGUUGUGGCUAGACUGCC [G2U A25U C31U],0.05
16,GGUAGAGCUCAACACAGAGUGGCAAUGUGGCUGUGGCUAGACUGUC [C3U C18A A26U C45U],0.17
17,GGCACGGCUCAACACAGCGUGGCAAAGUGGCUGUGGCUAGAUUGAC [G5C A6G C42U C45A],0.17
18,UGCAGAGCUAAACACAGCGUGGCAAAGUGGCUGUGGCUAGACUGGC [G1U C10A C45G],0
19,GGCACAGCUCAACACAGCGUGGCAAAGUUGCUUUGGCUACACUGCC [G5C G29U G33U G40C],0.03

row,Variant,self-cleavage
1,GGGAGAGCUCAACACGGCGAGGCAAAGUGGCUGUGGCUAGACUGCC [C3G A16G U20A],0.06
2,GGCAGAGCUCAACAAAGCGUGGCGUAGUGGCUGUGUCUAUACUGCC [C15A A24G A25U G36U G40U],0.09
3,GGCAGAGCUAAACACAGCGUGGCAAAGUUGCUGUGGCUUGCCUGCU [C10A G29U A39U A41C C46U],0.03
4,GGCUGAGCUCAACACAGCGUGGCCAAAUGGCUGUGGCUAAACUUCC [A4U A24C G27A G40A G44U],0.04
5,GGAAGAGCUCAACACAUCGUGCCAAAGAGGCUUUGGCUAGACUGCC [C3A G17U G22C U28A G33U],0.09
6,GGCAGAGUUCAACACAGCGUGGCAAAGUGGUAGUGGCUAGACUUCC [C8U C31U U32A G44U],0.2
7,GGCAGAGCACAAUACAGCGUGGCAAAGUGGCUGUGGCUACACUGCU [U9A C13U G40C C46U],0.13
8,GGCAGAGCUCAACACAGAGUGGCAAAGUCCCUGUAGCUAGACUGCC [C18A G29C G30C G35A],0.02
9,GGCACAGCUCAAAACAGCGUGGCAAAGUGGCUGUGGGUAGACUGCC [G5C C13A C37G],0.08
10,GGCAGAGCUCAACACAGCGUGGCAUACUGGCGGUGGCUAGACCGCC [A25U G27C U32G U43C],0.03
11,GGCAGUGCUCAACACAGCGUGGCAAAGUGGCUGUGGCUAGUCUGCA [A6U A41U C46A],0.57
12,GGCAGAGCUCAACGCAGCGUGGCAUAGUGGUUGUGGCUAGACUGCC [A14G A25U C31U],0.02
13,GGCAGGGCUCCACACAGCGUGGCAAAGAGGCUGUGGCUAGACUGCC [A6G A11C U28A],0.01
14,GGGAGAGCUAAACACAUCGUGGCAAAGUGGAUGUGGCUAGACUGCC [C3G C10A G17U C31A],0.03
15,GGCAGAGGUCAAAACAGCGUGGCAAAGUGGCUGUAGCUAGACUACC [C8G C13A G35A G44A],0.08
16,GCCAGAGCUCAACACAGCGUGGCAAAGUGGAUGUGGCUUGACUGCC [G2C C31A A39U],0.08
17,GGCAGAGCUCAACCCAGCGGGGCAAAGUGGCUGUUGCUAGACUGUC [A14C U20G G35U C45U],0.05
18,GGAGGAGCUCAACACAGCGUCGCAAAGUGGCUGUGGCUAGACUGCC [C3A A4G G21C],0.08
